Measured values as given in PubChem BioAssay AID1159614 (National Center for Advancing Translational Sciences (NCATS), 2016).
The campaign covered roughly 45,000 compounds. About 65 (0.1%) were called active. Calls follow the shape of the dose curve; as a rule, active = well fitted activation curve with a large enough effect; inconclusive = small, poorly fitted or top-dose-only effect; inactive = no such curve, though single readings can be large or run the other way. The list shows a part of the results.

target: Galactocerebrosidase (Homo sapiens) (UniProt P54803); experiment: A Novel Cell-Based Assay to Identify Small Molecules for B -Galactocerebrosidase; conditions: 145M-Twi-hGALC-G270D cells (Twitcher mouse brain line with human GALC G270D), HMU-beta-Gal fluorescence, 48 h; series mostly up to 57.5 µM; activation: at the top concentration; also: 0% is about no effect; nearly all actives have a fitted effect of over 65% in size
How it was run: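 Live 145M-Twi cells (Twitcher mouse brain-derived, GALC-null) stably expressing human GALC-G270D, with a wild-type GALC line, were compound-treated. Residual GALC activity was then read as fluorescence from 0.1 mM final HMU-β-gal at pH 5.2; higher signal means activation.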

UniProt P54803, sequence (P54803 whole entry, looked up): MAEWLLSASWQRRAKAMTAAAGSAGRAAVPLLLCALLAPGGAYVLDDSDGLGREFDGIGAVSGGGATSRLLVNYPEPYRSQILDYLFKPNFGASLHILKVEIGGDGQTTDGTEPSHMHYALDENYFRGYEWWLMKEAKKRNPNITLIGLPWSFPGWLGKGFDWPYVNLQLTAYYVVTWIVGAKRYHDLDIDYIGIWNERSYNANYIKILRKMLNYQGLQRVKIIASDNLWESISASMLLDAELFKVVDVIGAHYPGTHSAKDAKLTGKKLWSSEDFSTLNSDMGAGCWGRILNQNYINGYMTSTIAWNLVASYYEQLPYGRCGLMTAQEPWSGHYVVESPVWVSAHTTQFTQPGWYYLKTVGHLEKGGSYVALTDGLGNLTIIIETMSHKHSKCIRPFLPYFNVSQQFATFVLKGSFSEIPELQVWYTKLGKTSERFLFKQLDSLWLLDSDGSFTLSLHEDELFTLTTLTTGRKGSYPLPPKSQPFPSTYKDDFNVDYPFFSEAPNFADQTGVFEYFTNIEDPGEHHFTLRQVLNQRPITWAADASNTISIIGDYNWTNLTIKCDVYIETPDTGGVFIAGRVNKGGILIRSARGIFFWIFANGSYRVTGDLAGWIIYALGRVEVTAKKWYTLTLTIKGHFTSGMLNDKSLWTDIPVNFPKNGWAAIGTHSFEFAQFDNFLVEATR

activation, inactive:
COCCn1c(C)cc(O)c(C(c2ccccc2Cl)N2CCCCC2)c1=O (stereo unspecified) -5.99%
CCCN1CCN(CCCNC(=O)c2cc3c(s2)-c2ccccc2OC3)CC1 -3.9%
C[C@]12CC[C@@H]3c4ccc(O)cc4CC[C@H]3[C@@H]1CC[C@@H]2OC(=O)CCC1CCCC1 -15.1%
CN(C)c1ccc(CNC(=O)CCCN2C(=O)CCn3nc(-c4cn(C)c5ccccc45)cc32)cc1 -1.96%
COc1ccc(-c2nsc(NC(=O)c3oc4ccccc4c3C)n2)cc1 -3.63%
CCn1cc(C(=O)N2CCN(c3cccc(C)c3)C(C)C2)c(=O)c2cc(S(=O)(=O)N3CCOCC3)ccc21 (stereo unspecified) -10.9%
CCCNc1ncnc2c1c(-c1ccccc1)cn2-c1ccccc1 -0.221%
CCc1cccc(-n2nnc(S(=O)(=O)c3ccc(OC)cc3)c2C)c1 -47.1%
COCCn1c(C)cc(O)c(C(c2ccccc2F)N2CCN(c3ccccc3)CC2)c1=O (stereo unspecified) -10.7%
COc1ccccc1CCNC(=O)C(=O)NCC(c1cccnc1)N1CCN(c2ccccc2)CC1 (stereo unspecified) -2.03%
COc1ccc(C2=NN(CCC(=O)NCCc3ccccc3)C(=O)CC2)cc1 -10.5%
COc1ccc(NC(=O)Cn2nnc(-c3nc(-c4ccncc4)no3)c2N)cc1OC -11%
Cc1cccc(C)c1NC(=O)C1CCCN1S(=O)(=O)c1cccc2nsnc12 (stereo unspecified) -18.2%
Cc1ccc(Cn2cc(CCC(=O)NCC(C)c3ccccc3)c3ccccc32)cc1 (stereo unspecified) -41.4%
Cc1c(NS(=O)(=O)c2ccc(Cl)cc2)c(=O)n(-c2ccccc2)n1C -11.7%
Cc1nc2c(c(C)c1CCC(=O)Nc1ccc(F)cc1)c(=O)n(C)c(=O)n2C -16.1%
CCCN1C(=O)c2oc3cc(C)cc(C)c3c(=O)c2C1c1ccc(F)cc1 (stereo unspecified) 6.17%
COc1ccc(-c2cc(C(F)(F)F)nc(SCC(=O)Nc3ccc(O)cc3)n2)cc1OC -12.4%
Cc1ccc(C)c(NC(=O)c2cnc3sc(N4CCOCC4)nn3c2=O)c1 5.23%
CCN(CC)CCCNC(=O)CCc1c(C)nc2c(c1C)c(=O)n(C)c(=O)n2C -6.02%
CCOc1ccc(CNC(=O)c2ccc(NC(=O)N3CCSc4ncccc43)cc2)cc1 -7.46%
Cc1ccc(NC(=O)c2cccc(NC(=O)N3CCSc4ncccc43)c2)cc1F -16.7%
COc1ccc(-c2nc3cc(NC(=O)COc4ccc(C)c(C)c4)ccc3o2)cc1 -6%
Cc1cc(=O)c2cc(C(=O)Nc3cccc(C)c3C)ccc2[nH]1 -13%
CCCCOCCOC(=O)c1cccnc1 -11.9%
O=C(CCc1ccccc1)NCc1ccc2c(c1)CCN2C(=O)c1ccccc1 -0.532%
COc1ccccc1-c1nnc(C2CCN(S(=O)(=O)c3ccc(CC(C)C)cc3)CC2)o1 -0.241%
Nc1c(C(=O)Nc2ccc(C(F)(F)F)cc2)sc2nc(-c3cccs3)ccc12 -11.3%
COc1ccc(-n2c(SCC(=O)c3ccc(Cl)cc3)nc3c([nH]c4ccccc43)c2=O)cc1 -16.7%
COc1cccc(NC(=O)Cn2c(=O)n(-c3ccccc3)c(=O)c3ccc(C(=O)NCc4ccc5c(c4)OCO5)cc32)c1 -14.1%
COc1ccccc1N1CCN(c2ccc(=O)n(CC(=O)Nc3cc(F)ccc3C)n2)CC1 -6.46%
Cn1cc(C(=O)O)c(=O)c2cc(S(=O)(=O)N3CCOCC3)ccc21 -50.4%
COc1ccccc1NC(=O)c1oc2ccccc2c1NC(=O)Cc1cccs1 -9.65%
CC(=O)N1CCc2c(sc3c2c(=O)n(CCc2ccccc2)c(=O)n3CC(=O)Nc2ccccc2F)C1 -24%
CCC(Cc1c(I)cc(I)c(N)c1I)C(=O)O (stereo unspecified) -20.6%
Cc1ccc(N(CC(O)Cn2c3ccccc3c3ccccc32)S(=O)(=O)c2ccc(F)cc2)cc1 (stereo unspecified) -12.2%
Cc1ccccc1Nc1sc(C(=O)c2ccccc2)c(N)c1S(C)(=O)=O -11.6%
COc1ccc(CCNc2ncnc3onc(-c4ccc(Cl)cc4)c23)c(OC)c1 -18.9%
CCc1ccc(NC(=O)CN2C(=O)C3CCCN3c3ccc(S(=O)(=O)N(CC)CC)cc32)cc1 (stereo unspecified) -11.2%
Cn1cc(S(=O)(=O)N2CCCCCC2)cc1C(=O)N1CCN(c2ccccc2F)CC1 -15%
Cc1ccc(-c2nc3cc(NC(=O)Cc4ccc(Cl)cc4)ccc3o2)cc1 -2.16%
CCOC(=O)c1ccc(N2CC3=C(C2=O)C(c2ccc(OC)cc2)NC(=O)N3C)cc1 (stereo unspecified) -13.4%
COc1ccc2c(Sc3ccc(C)cc3)c(C(=O)NCC(C)c3ccccc3)[nH]c2c1 (stereo unspecified) -16.1%
CCc1ccc(NC(=O)Cn2c(=O)n(CCCC(=O)NCc3ccccc3Cl)c(=O)c3ccccc32)cc1 -5.02%
Cc1cc(NC(=O)CSc2nc(-c3cccc(F)c3)nc3c2c(=O)n(C)c(=O)n3C)no1 -11.9%
COc1ccccc1NC(=O)Cn1cnc2ccc(S(=O)(=O)N3CCC(C)CC3)cc2c1=O -15.3%
COc1ccc2oc(=O)c(C(=O)NCCc3c(C)[nH]c4ccc(C)cc34)cc2c1 -12.1%
Cc1ccc(CNC(=O)c2cc3c(=O)oc4ccc(C)cc4c3s2)cc1 -26.3%
COc1ccccc1-c1nc2c(c(SCc3cc(C)ccc3C)n1)Cc1c(CO)cnc(C)c1O2 -6.77%
COc1ccc(N(CC(=O)N2CCN(c3ccccc3F)CC2)S(=O)(=O)c2c(C)noc2C)cc1 -4%
CCCNC(=O)Cn1nc(-c2ccc(C)c(C)c2)c2cnc3ccc(OC)cc3c21 -16.3%
CN1CCc2cccc3c2[C@H]1Cc1ccc(O)c(O)c1-3 -4.98%
O=C(Nc1noc2ccccc12)c1cccc(Cl)c1Cl -9.6%
COc1ccc(CNCCC(c2ccc(C)cc2)c2ccco2)cc1 (stereo unspecified) -18.1%
Cc1ccccc1NC(=O)C(Cc1ccccc1)N1Cc2ccccc2C1=O (stereo unspecified) -6.75%
Cc1cccc(OCC(=O)Nc2ccc(S(=O)(=O)Nc3onc(C)c3C)cc2)c1C 0.832%
Cc1nn(-c2ccccc2)c(-n2cccc2)c1C(=O)N1CCN(c2ccccc2)CC1 -3.71%
CCOC(=O)c1ccc(OC(=O)c2cn(-c3ccc(C)cc3)c(=O)c3ccccc23)cc1 -8.21%
Cc1cc(OCC(=O)N(Cc2ccc(N(C)C)cc2)Cc2ccco2)cc(C)c1Cl -6.79%
COc1ccc(NC(=O)Cn2c(=O)n(Cc3ccco3)c(=O)c3sc4ccccc4c32)c(OC)c1 -15.1%
CN(C)c1ccc(O)c2c1C[C@H]1C[C@H]3[C@H](N(C)C)C(=O)C(C(N)=O)=C(O)[C@@]3(O)C(=O)C1=C2O -9.44%
Cc1ccc(NC(=O)C2CCCN(C(=O)c3cnn(-c4ccccc4)c3-n3cccc3)C2)cc1 (stereo unspecified) -0.939%
COCCCN1C(=O)c2[nH]nc(-c3cc(C)ccc3O)c2C1c1ccc(F)cc1 (stereo unspecified) -15.4%
COc1ccc(CNC(=O)c2cc3sccc3n2Cc2ccc(F)cc2)cc1 -14.2%
Cc1c(Cl)cccc1NC(=O)c1cc(S(=O)(=O)N2CCCCC2)cn1C -24.4%
CCc1nnc(NC(=O)CSc2nc3c([nH]c4ccccc43)c(=O)n2-c2ccc(F)cc2)s1 -7.19%
Cc1ccc2oc(=O)c3cc(C(=O)Nc4ccc(C)c(F)c4)sc3c2c1 -13.7%
COc1ccccc1/C=C/c1onc(C)c1S(=O)(=O)N1CCC(C(=O)N2CCC(C)CC2)CC1 -13.4%
COC(=O)c1sccc1S(=O)(=O)N(CC(=O)Nc1ccccc1C)c1ccc(Cl)cc1 -37.2%
Cc1ccccc1NC(=O)CSc1nc2ccc(NC(=O)CCc3ccccc3)cc2s1 -20.6%
Nc1ccc2oc(-c3ccccc3Br)nc2c1 -14.7%
Cc1ccc(-n2nc(C)c3c(C)cc(=O)n(CC(=O)Nc4cc(Cl)ccc4C)c32)cc1 -19.6%
Cc1cccn2c(=O)cc(COc3ccc(NC(=O)C(C)C)cc3)nc12 -11.5%
CCOC(=O)c1oc2ccc(S(=O)(=O)n3nc(-c4ccc(Br)cc4)cc3N)cc2c1C -16.1%
COc1ccc(CNC(=O)c2c3c(nc4ccccc24)C(=O)N(C2CCCCC2)C3)cc1 -10.2%
COC(=O)c1ccc(CSc2nc3c([nH]c4ccccc43)c(=O)n2-c2ccc(OC)cc2)o1 -1.99%
COc1cccc(CNC(=O)c2nn(-c3ccc(C)cc3)c(=O)c3c2c2ccccc2n3C)c1 -7.57%
O=C(Cc1ccccc1)NCCc1csc2nc(-c3ccc(Cl)cc3)nn12 -11.2%
COc1ccc(Nc2nc(N)c3cc(OC)c(OC)cc3n2)cc1 -24.4%
Brc1c(NC2=NCCN2)ccc2nccnc12 -5.35%
CCOC(=O)c1scc(-c2ccccc2)c1S(=O)(=O)Nc1cc(Cl)c(OC)cc1OC -3.95%
CC1CCc2c(sc(NC(=O)C3c4ccccc4Oc4ccccc43)c2C(=O)OC(C)C)C1 (stereo unspecified) -6.09%
Cc1ccc(S(=O)(=O)NCc2nc(-c3cccc(C)c3)no2)cc1 -32%
COc1ccc(C2CC(=O)N(Cc3cccc(F)c3)c3ccccc3S2)cc1 (stereo unspecified) -33.2%
COc1ccccc1Nc1nn2c(=O)c3ccc(C(=O)N4CCCC(C)C4)cc3nc2s1 (stereo unspecified) -6.48%
Cc1ccc(-n2nc(C)c3c(C(=O)NCc4ccccc4)cc(C4CC4)nc32)cc1 -12.5%
COc1ccccc1CNS(=O)(=O)c1ccc2c(c1)NC(=O)CC(=O)N2 -13.4%
CN(C)CCOC(=O)COc1ccc(Cl)cc1 -13.1%
COc1ccc(C(=O)Nc2nnc(S(=O)(=O)N(CC(C)C)c3ccc(C)cc3)s2)cc1OC -14.5%
O=C(CSc1nc(=O)n(CCN2CCOCC2)c2c1CCC2)Nc1ccccc1 -7.78%
COCCCNC(=O)c1ccc2c(c1)N(Cc1ccccc1)C(=O)c1ccccc1S2 -29.8%
COc1ccccc1CNC(=O)CCCn1c(=O)c2ccccc2n(CC(=O)Nc2c(C)cc(C)cc2C)c1=O -15.2%
CCn1cc(C(=O)NCc2ccccc2Cl)c(=O)c2cc(S(=O)(=O)N3CCc4ccccc4C3)ccc21 -11.7%
CCOC(=O)c1cccnc1 -12.5%
CCOC(=O)c1sc(NC(=O)C2c3ccccc3Oc3ccccc32)c(C(=O)OCC)c1C -6.43%
COc1ccc(NC(=O)CSc2nnc(NC(=O)Nc3ccccc3)s2)cc1OC -7.35%
